Measured values reported in the antibiotic and cytotoxicity screens of Wong et al. (2023).
The list shows a part of the results.

Key:
HSkMC = human skeletal muscle cells; experiment: cytotoxicity call (relative viability < 0.9); settings: 10 µM
HepG2 = experiment: cytotoxicity call (relative viability < 0.9); settings: 10 µM
S. aureus RN4220 = experiment: growth inhibition call (relative growth <= 0.2); settings: 50 µM

Row | Structure (SMILES) | cytotoxicity call (HSkMC) | cytotoxicity call (HepG2) | growth inhibition call (S. aureus RN4220)
1 | COc1ccc(NC(=O)N(C)C[C@@H]2Oc3c(NS(C)(=O)=O)cccc3C(=O)N([C@H](C)CO)C[C@@H]2C)cc1 | inactive | inactive | inactive
2 | C[C@@H]1CN([C@@H](C)CO)C(=O)Cc2cc(NS(=O)(=O)c3ccccc3)ccc2O[C@@H]1CN(C)Cc1ccncc1 | inactive | inactive | inactive
3 | Cc1noc(C)c1NC(=O)N(C)C[C@@H]1OCCCC[C@@H](C)Oc2ccc(NC(=O)Nc3ccccc3)cc2C(=O)N([C@H](C)CO)C[C@H]1C | inactive | inactive | inactive
4 | COc1ccnc(CS(=O)c2nc3cc(OC(F)F)ccc3[nH]2)c1OC (stereo not given) | inactive | inactive | inactive
5 | C[C@H]1CN([C@@H](C)CO)C(=O)c2cccc(NS(C)(=O)=O)c2O[C@@H]1CN(C)C(=O)Nc1ccc(F)cc1 | inactive | inactive | inactive
6 | C[C@H]1CN([C@@H](C)CO)C(=O)Cc2cc(NS(=O)(=O)c3ccc(F)cc3)ccc2O[C@@H]1CN(C)S(C)(=O)=O | inactive | inactive | inactive
7 | COc1ccc(C#Cc2ccc3c(c2)O[C@@H](CN(C)C(=O)CN2CCOCC2)[C@H](C)CN([C@@H](C)CO)S3(=O)=O)cc1 | inactive | inactive | inactive
8 | COc1ccc(-n2nc(C(N)=O)c3c2C(=O)N(c2ccc(N4CCCCC4=O)cc2)CC3)cc1 | inactive | inactive | inactive
9 | C[C@@H]1CN([C@@H](C)CO)C(=O)c2cc(NS(C)(=O)=O)ccc2O[C@@H]1CN(C)Cc1ccc2c(c1)OCO2 | inactive | inactive | inactive
10 | C[C@@H]1CN([C@H](C)CO)C(=O)c2cc(NC(=O)Nc3ccc(F)cc3)ccc2O[C@@H](C)CCCCO[C@H]1CN(C)C(=O)Nc1ccc(F)cc1 | inactive | active | inactive
11 | COc1ccc(NC(=O)N(C)C[C@@H]2OCCCC[C@H](C)Oc3ccc(NC(=O)Nc4c(C)noc4C)cc3C(=O)N([C@H](C)CO)C[C@@H]2C)cc1 | inactive | inactive | inactive
12 | C[C@@H]1CCCCO[C@@H](CN(C)C(=O)C2CCCCC2)[C@H](C)CN([C@H](C)CO)C(=O)c2cc(NC(=O)Nc3ccc(C(F)(F)F)cc3)ccc2O1 | inactive | inactive | inactive
13 | C[C@H]1C(=O)C(=O)[C@@H]2O[C@@H]2C1=O | inactive | inactive | inactive
14 | C[C@@H]1CN([C@H](C)CO)C(=O)c2cc(NC(=O)NC3CCCCC3)ccc2O[C@@H](C)CCCCO[C@@H]1CN(C)S(=O)(=O)c1ccccc1 | inactive | inactive | inactive
15 | COc1ccc(S(=O)(=O)Nc2ccc3c(c2)CC(=O)N([C@H](C)CO)C[C@@H](C)[C@@H](CN(C)S(=O)(=O)c2cccs2)O3)cc1 | inactive | inactive | inactive
16 | C[C@@H]1CN([C@H](C)CO)C(=O)c2cc(NS(=O)(=O)c3ccc(Cl)cc3)ccc2O[C@@H]1CN(C)C(=O)Nc1ccc(C(F)(F)F)cc1 | inactive | active | inactive
17 | C[C@@H]1CCCCO[C@H](CN(C)CC2CC2)[C@H](C)CN([C@@H](C)CO)C(=O)c2cc(NC(=O)Nc3ccc4c(c3)OCO4)ccc2O1 | inactive | inactive | inactive
18 | O=C(C[C@@H]1CC[C@@H]2[C@H](COC[C@@H](O)CN2S(=O)(=O)c2ccccc2)O1)NCCN1CCCCC1 | inactive | inactive | inactive
19 | COc1ccc(cc1)S(=O)(=O)N1C[C@]2(CN(Cc3ccncc3)[C@@H](CO)c3[nH]c4cc(ccc4c32)OC)C1 | inactive | inactive | inactive
20 | CC(C)NC(=O)Nc1ccc2c(c1)C(=O)N([C@@H](C)CO)C[C@H](C)[C@@H](CN(C)S(=O)(=O)c1ccccc1)O2 | inactive | inactive | inactive
21 | Cc1noc(C)c1NC(=O)N(C)C[C@@H]1Oc2ccc(NC(=O)CCCN(C)C)cc2C(=O)N([C@@H](C)CO)C[C@H]1C | inactive | inactive | inactive
22 | CS(=O)(=O)Nc1ccccc1O | inactive | inactive | inactive
23 | O=C(O)CC(O)(CC(=O)O)C(=O)O.[LiH].[LiH].[LiH] | inactive | inactive | inactive
24 | C[C@@H]1CCCCO[C@@H](CN(C)C(=O)c2ccccc2)[C@H](C)CN([C@H](C)CO)C(=O)c2cc(NC(=O)CCC(F)(F)F)ccc2O1 | inactive | inactive | inactive
25 | C[C@@H]1CCCCO[C@H](CN(C)S(=O)(=O)c2ccccc2)[C@@H](C)CN([C@H](C)CO)C(=O)c2cc(NC(=O)Nc3cccc4ccccc34)ccc2O1 | inactive | inactive | inactive
